# Experimental data from the supplement of paper PMC7826260.
# Some of the results follow. The data describe in vitro nicking of single-stranded DNA by Rep domains for 1 h at 37 °C with 3 µM enzyme; only the middle of the 90-letter strands is printed. Uncut reads are compared with the no-enzyme pool on a log2 scale; more negative means more cut, near 0 not cut, and no call is made. The scaling is to total reads; uncut strands gain when others are lost, and binding without cutting may add a little.
# Tested on: T1, Rep nickase domain of maize striate mosaic virus
# T1 sequence (protein, residues 1-117, tag omitted): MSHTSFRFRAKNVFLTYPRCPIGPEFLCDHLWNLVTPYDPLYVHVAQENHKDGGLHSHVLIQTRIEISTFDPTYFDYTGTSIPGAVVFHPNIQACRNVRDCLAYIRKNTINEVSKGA
# Assay: uncleaved DNA left, log2 of reads against the no-enzyme library (log2 ratio); higher = less cleavage (more negative = more Rep cleavage of the k-mer); sequences stand for … in CTCGTCCG…ACCGGAGA
# Experimental: (§1)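 A pool of 90-nt single-stranded DNAs with seven random bases just before the constant AC of the nick site (name = the seven bases) was cut by 3 µM recombinant His6-SUMO-tagged Rep nickase domain (300 nM DNA, 50 mM HEPES pH 8.0, 50 mM NaCl, 1 mM MnCl2, 1 h, 37 °C, three replicates). Uncut DNA was amplified and sequenced.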
row,Sequence,uncleaved DNA left (log2)
1,ATACGCG,0.113
2,TCGACTG,1.82
3,TAAGACA,0.596
4,GTCTCGC,1.61
5,CGGGTAA,1.36
6,CTGGCAT,1.18
7,CATTATG,-0.989
8,GGGCTAG,2.19
9,ATGTAAA,-0.389
10,GTGGTCC,1.85
11,TAAGACT,1.23
12,GTGCGTG,-0.349
13,CTGAACG,-0.455
14,AACTCGC,-1.27
15,TAGGAGT,1.06
16,CAAGTCT,-0.791
17,TGTGCCT,-0.212
18,TCGTCCC,0.0724
19,CTCCTGC,-1.04
20,CACGATC,-0.458

row,Sequence,uncleaved DNA left (log2)
1,ATGGGAC,2.08
2,ATGCTGC,0.124
3,AGACTAT,1.58
4,TCGGCGA,-0.793
5,TATTGAC,-0.874
6,CCCTCAC,-0.3
7,CGTTGGT,-0.62
8,ATCCCGA,-0.829
9,TGACATG,1.16
10,CAATTGT,-2.93
11,TACTCCG,-1.03
12,GTGAGCA,1.44
13,GGAGTCT,1.96
14,GCAGAGG,-0.0836
15,CGGACGT,2.05
16,CACTCCA,-0.0288
17,TGACCCC,1.7
18,TATACAC,-0.104
19,GTTCACA,1.75

# Tested on: T2, Rep nickase domain of porcine circovirus 2
# T2 sequence (protein, residues 2-116, tag omitted): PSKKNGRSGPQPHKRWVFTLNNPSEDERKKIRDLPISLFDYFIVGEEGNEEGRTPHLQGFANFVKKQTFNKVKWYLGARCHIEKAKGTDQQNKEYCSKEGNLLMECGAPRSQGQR
# Assay: as above
# Experimental: as §1
row,Sequence,uncleaved DNA left (log2)
1,ATACGCG,0.124
2,TCGACTG,0.0907
3,TAAGACA,0.0369
4,GTCTCGC,0.21
5,CGGGTAA,0.0993
6,CTGGCAT,0.152
7,CATTATG,0.258
8,GGGCTAG,0.39
9,ATGTAAA,0.0905
10,GTGGTCC,0.0667
11,TAAGACT,0.152
12,GTGCGTG,-0.0338
13,CTGAACG,0.241
14,AACTCGC,-0.12
15,TAGGAGT,-0.527
16,CAAGTCT,-0.415
17,TGTGCCT,-0.148
18,TCGTCCC,-0.162
19,CTCCTGC,-0.146
20,CACGATC,0.0912

row,Sequence,uncleaved DNA left (log2)
1,ATGGGAC,0.26
2,ATGCTGC,0.111
3,AGACTAT,0.0919
4,TCGGCGA,0.00936
5,TATTGAC,0.174
6,CCCTCAC,0.024
7,CGTTGGT,-0.62
8,ATCCCGA,0.0457
9,TGACATG,0.0953
10,CAATTGT,-3.75
11,TACTCCG,-0.111
12,GTGAGCA,-0.0775
13,GGAGTCT,0.0207
14,GCAGAGG,0.113
15,CGGACGT,0.0643
16,CACTCCA,-2
17,TGACCCC,0.0578
18,TATACAC,0.0851
19,GTTCACA,0.122

# Tested on: T3, Rep nickase domain of tomato yellow leaf curl virus
# T3 sequence (protein, residues 1-136, tag omitted): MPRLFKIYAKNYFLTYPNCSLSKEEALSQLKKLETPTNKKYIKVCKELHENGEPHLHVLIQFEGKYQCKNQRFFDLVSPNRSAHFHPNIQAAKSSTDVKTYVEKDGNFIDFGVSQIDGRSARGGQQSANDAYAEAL
# Assay: as above
# Experimental: as §1
row,Sequence,uncleaved DNA left (log2)
1,ATACGCG,-0.0481
2,TCGACTG,-0.0207
3,TAAGACA,0.078
4,GTCTCGC,0.0998
5,CGGGTAA,-0.0411
6,CTGGCAT,-0.0833
7,CATTATG,0.199
8,GGGCTAG,0.228
9,ATGTAAA,0.0491
10,GTGGTCC,-0.0771
11,TAAGACT,0.118
12,GTGCGTG,0.0807
13,CTGAACG,-0.0802
14,AACTCGC,0.0316
15,TAGGAGT,-0.0876
16,CAAGTCT,0.00023
17,TGTGCCT,0.00333
18,TCGTCCC,0.0787
19,CTCCTGC,-0.0214
20,CACGATC,0.0734

row,Sequence,uncleaved DNA left (log2)
1,ATGGGAC,0.00514
2,ATGCTGC,-0.101
3,AGACTAT,0.0942
4,TCGGCGA,-0.052
5,TATTGAC,0.00491
6,CCCTCAC,-0.0521
7,CGTTGGT,0.238
8,ATCCCGA,-0.0965
9,TGACATG,0.0334
10,CAATTGT,-0.0592
11,TACTCCG,-0.213
12,GTGAGCA,0.242
13,GGAGTCT,0.152
14,GCAGAGG,-0.115
15,CGGACGT,-0.043
16,CACTCCA,-0.0812
17,TGACCCC,0.0889
18,TATACAC,0.0187
19,GTTCACA,0.045
